Experimental data published in the RNAGym collection of RNA variant scans (doi:10.1093/nar/gkz1192).
The source gives no read counts; variants with many changes may rest on few reads.

B1: CPEB3 Ribozyme (parent)
chain: UAACAGGGGGCCACAGCAGAAGCGUUCACGUCGCAGCCCCUGUCAGAUUCUGGUGAAUCUGCGAAUUCUGCUGUAUAUCUC

Variants of: B1
Assay: self-cleavage, relative activity (ratio to wild type); higher = more cleavage; in vitro, sequencing
How it was run: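 Relative activity was defined as the cleaved/total read fraction for a variant divided by the same fraction for the unmutated ribozyme. CPEB3 self-cleaving ribozyme libraries were made by rounds of error-prone PCR, barcoded, and transcribed in vitro with T7 RNA polymerase for 5 hours at 37°C, and cleavage ran through transcription plus a 15 min DNase I step before EDTA. Illumina sequencing of template-switched reverse transcripts gave the reads, and DNA sequencing mapped the barcodes. Averages come from three batches, using variants with at least 5 reads.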
Variant U41C A57G U72C U80C has a self-cleavage of 1.13.
For U41C U49A U69C U74C, the self-cleavage was 0.53.
Variant U41C U48C G53A U72C has a self-cleavage of 0.66.
Variant U41C U51A A56G U67A U76C has a self-cleavage of 0.29.
U41C G42A U78C gave a self-cleavage of 0.21.
In the case of U41C A47G U54C, the self-cleavage is reported as 0.97.
Variant U41C U54A A57G U69G has a self-cleavage of 0.67.
U41C G42C A56U U76C U78A gave a self-cleavage of 0.21.
U41C U54C A65U U76C showed a self-cleavage of 0.13.
For U41C U60A A64G A77G, the self-cleavage was 0.28.
With U41C U49C U69A the self-cleavage was 0.25.
For U41C U49C U60C, the self-cleavage was 0.16.
Work on G42A A45G A57G A75U U78G yielded a self-cleavage of 0.09.
Work on U41C U51C A64G yielded a self-cleavage of 0.8.
Work on G42C A45G A64G U66C U72C U78C yielded a self-cleavage of 0.1.
U41C A56U G70C U74A showed a self-cleavage of 0.28.
With U41C U48C U60C A77G the self-cleavage was 0.21.
In the case of U41C U48C C62U U72A, the self-cleavage is reported as 0.13.
With U41C U49C U72C the self-cleavage was 0.27.
With U41G U54C G63U A65G the self-cleavage was 0.15.
G42A U54C A64G U66A A77G gave a self-cleavage of 0.08.
With G42A A65G U67G the self-cleavage was 0.12.
With U41G A57G A77G the self-cleavage was 0.11.
In the case of U41C C44A U72A, the self-cleavage is reported as 0.12.
Work on U41C U72C A75G yielded a self-cleavage of 1.21.
For U41C A64G U76C, the self-cleavage was 1.01.
U41C U49C A56U C62U gave a self-cleavage of 0.11.
Variant U41C A56G U69C has a self-cleavage of 0.5.
With U41C U43C A56U A57G U72A the self-cleavage was 0.15.
G42A U43C U49C U67C U69A showed a self-cleavage of 0.05.
With G42A U54A U76A the self-cleavage was 0.4.
Variant U41C A47G A75G U76C has a self-cleavage of 0.84.
U41C U48C C59A gave a self-cleavage of 0.17.
In the case of U41C G63A A64U, the self-cleavage is reported as 0.3.
In the case of U41G U43C U78C, the self-cleavage is reported as 0.23.
In the case of G42U U72A U76A, the self-cleavage is reported as 0.03.
Variant U41C G46U U49C U54C A57G G73U has a self-cleavage of 0.07.
Variant U41C A65G U69C has a self-cleavage of 0.5.
In the case of U41C A64U U78C, the self-cleavage is reported as 0.28.
With U41C A45U U78C the self-cleavage was 0.61.
U41C U49C G53U U54A U67C gave a self-cleavage of 0.27.
With U41C U54G U66C the self-cleavage was 0.15.
Work on U41C U54A U74A yielded a self-cleavage of 1.23.
For U41C U51C U78A, the self-cleavage was 1.11.
Work on U41C U78C C79G yielded a self-cleavage of 1.07.
With U41C C62U A65G U69A A75G the self-cleavage was 0.21.
U41C U54C A57G U58C U72C gave a self-cleavage of 0.4.
Work on U41C U54C U78C yielded a self-cleavage of 0.98.
In the case of U41C U54C U60C A64G, the self-cleavage is reported as 0.3.
For U41C U49C A64G U67C, the self-cleavage was 0.08.
Variant U41C U49C U51C A64G has a self-cleavage of 0.15.
With U41C U51C U60A A64U U69C the self-cleavage was 0.47.
Work on G42U U51C A64G U66C yielded a self-cleavage of 0.1.
G42A A45C U54G showed a self-cleavage of 0.11.
In the case of U41C A45U U67C, the self-cleavage is reported as 0.35.
In the case of U41C U43A A47U, the self-cleavage is reported as 0.23.
With U41C G42A A47G U80C the self-cleavage was 0.38.
For U41C U67C A77G, the self-cleavage was 0.51.
U41C U67C A77U showed a self-cleavage of 0.24.
With U41C U51C U72C the self-cleavage was 1.18.
Variant U41C U54C U74C has a self-cleavage of 1.19.
In the case of U41C A57G U58C U67A U69C, the self-cleavage is reported as 0.15.
U41C U58C U80C gave a self-cleavage of 0.87.
In the case of U43A A45G U54C A64G, the self-cleavage is reported as 0.57.
G42A U58G U60C U67C showed a self-cleavage of 0.12.
Variant U41C U43A A56U U66C has a self-cleavage of 0.14.
For G42U U48C U49C U58A C59U, the self-cleavage was 0.1.
With U41C A75G U78C the self-cleavage was 0.79.
With U41C U43A A56G U78A the self-cleavage was 0.52.
Variant U41G G52A A77U has a self-cleavage of 0.1.
U41C U74C A77G showed a self-cleavage of 1.27.
For U41C U51C A56G C59U U72A, the self-cleavage was 0.23.
In the case of U41C A45U U54A U67C, the self-cleavage is reported as 0.45.
In the case of U41G U51C U69A, the self-cleavage is reported as 0.35.
For U41G G61A A77U, the self-cleavage was 0.33.
In the case of U41C U48C U51A G55A, the self-cleavage is reported as 0.37.
G42U U49C U60C G63A U69C showed a self-cleavage of 0.07.
U41C U66C U67G showed a self-cleavage of 0.22.
For U41C U51A U72C, the self-cleavage was 1.14.
With U41C A64U U69G A77G the self-cleavage was 0.31.
Variant U41C U49C U78A has a self-cleavage of 0.33.
U41C A56G C59U U66C U72C gave a self-cleavage of 0.33.
U41C G42C G63U A77U showed a self-cleavage of 0.42.
In the case of U41C U43C C50A U60C, the self-cleavage is reported as 0.04.
In the case of G42A U58C U80C, the self-cleavage is reported as 0.07.
For U41C A64G A75U, the self-cleavage was 0.9.
For U41C U43C A56G U69A, the self-cleavage was 0.19.
Work on G42A U49A G53U yielded a self-cleavage of 0.33.
Variant U41C U43G U60C A65G C68U has a self-cleavage of 0.15.
With U41C U72G U80A the self-cleavage was 1.26.
In the case of U41C U66C U72A, the self-cleavage is reported as 0.4.
Variant U41C U60A U80G has a self-cleavage of 0.78.
Work on U41C U60A U80A yielded a self-cleavage of 0.68.
With U41C U60A U80C the self-cleavage was 0.7.
For U41C U66A U74A, the self-cleavage was 0.86.
U41C U49C G52A gave a self-cleavage of 0.73.
G42A A64U U72C gave a self-cleavage of 0.37.
Variant U41C U58A A65U U67C U74C U80A has a self-cleavage of 0.22.
Variant U41C U49C U60A A64G has a self-cleavage of 0.2.
With G42A U54C A56U the self-cleavage was 0.54.
Work on U41C U72C A77G yielded a self-cleavage of 1.22.
Variant G42A U72A G73A has a self-cleavage of 0.08.
U41C G42C U60C A75U U76C showed a self-cleavage of 0.14.
Variant U41C U58A U60A has a self-cleavage of 0.14.
For U41C U49C U51A, the self-cleavage was 0.7.
U41C U60C U69C gave a self-cleavage of 0.41.
With U41C A57G U72G the self-cleavage was 0.43.
Work on U41C G42C A64G yielded a self-cleavage of 0.54.
U41C G46A U54A U72A showed a self-cleavage of 0.19.
Variant U41C U54A U58G A64U has a self-cleavage of 0.13.
U41C U49A G63U showed a self-cleavage of 0.59.
Work on U43A A45G A56G yielded a self-cleavage of 0.6.
In the case of U41C A64U U67C U80A C81U, the self-cleavage is reported as 0.22.
With U41G A57G U58A U74A the self-cleavage was 0.17.
With G42C U43A U49C the self-cleavage was 0.43.
U41C U49C A57G G73C U78C showed a self-cleavage of 0.74.
U41C A64U G73A gave a self-cleavage of 0.77.
Variant U41C G46A U72A has a self-cleavage of 0.2.
G42A A45G U48A U60C U69C gave a self-cleavage of 0.09.
With G42A U54C U78C the self-cleavage was 0.25.
Work on U41C C50A U54C U67C U69C yielded a self-cleavage of 0.14.
U41G U54C U72C showed a self-cleavage of 0.24.
Variant U41C U51A C68A has a self-cleavage of 0.44.
For U43A A45G A56U U69C, the self-cleavage was 0.14.
In the case of U41C U48C U54C U60C U67G U78A, the self-cleavage is reported as 0.29.
With U41G A64G U80G the self-cleavage was 0.17.
U41C U49A A56G U60C A64G showed a self-cleavage of 0.23.
With U41C U76C U78C the self-cleavage was 1.13.
U41C U51C U58A showed a self-cleavage of 0.29.
Work on U41G U48C A56G U78C yielded a self-cleavage of 0.19.
For G42A A64G C71A, the self-cleavage was 0.15.
G42U U74C A75G gave a self-cleavage of 0.28.
In the case of U41C A56U U60A, the self-cleavage is reported as 0.42.
Work on U41C U69G U74A yielded a self-cleavage of 0.82.
Variant G42A U49C U72A has a self-cleavage of 0.11.
Variant U41C A47G U48C U78A has a self-cleavage of 0.2.
In the case of U43A A45G A56U A64G U72A, the self-cleavage is reported as 0.13.
With U41C A56U U74A the self-cleavage was 1.03.
U41C G52A U67C U72A showed a self-cleavage of 0.32.
In the case of U41C A47G U58C, the self-cleavage is reported as 1.25.
For U41C A64G U72C, the self-cleavage was 0.79.
Work on U41C U78G U80C yielded a self-cleavage of 1.08.
U41C U43C U72A gave a self-cleavage of 0.3.
Variant U41C U43C U72G has a self-cleavage of 0.43.
For U41C U60A A64G U74A, the self-cleavage was 0.59.
In the case of U41C A47C U78C, the self-cleavage is reported as 0.32.
For G42A U49C A57G, the self-cleavage was 0.1.
Variant U41C G52A G53A C59U U60C U69C has a self-cleavage of 0.58.
With G42A A45C U72A the self-cleavage was 0.07.
G42C A47G C50A A57U showed a self-cleavage of 0.16.
Work on U41C C50U U60C A65G U80C yielded a self-cleavage of 0.23.
Work on U41C A47G A75U U80C yielded a self-cleavage of 1.05.
With U41C U49C A64G G70U the self-cleavage was 0.17.
G42A U60C A75G gave a self-cleavage of 0.06.
With U41C U58C U69A U80A the self-cleavage was 0.13.
For U41C U51A A64U, the self-cleavage was 0.23.
U41C U66C G70U gave a self-cleavage of 0.25.
Work on U41G U66A U76A yielded a self-cleavage of 0.09.
In the case of U41C U60A U74A U76C, the self-cleavage is reported as 0.96.
Work on G42A U72G A77G yielded a self-cleavage of 0.19.
With U41C U58A A64G U80C the self-cleavage was 0.2.
Variant U41C U48C U51C U58C has a self-cleavage of 0.09.
U41C U43C U67A U69C U74C U78A showed a self-cleavage of 0.06.
For U41C G46A U51G, the self-cleavage was 0.16.
Work on U41C A56U C81U yielded a self-cleavage of 0.88.
For U41C U58A U74C U80A, the self-cleavage was 0.92.
U41C G61U A64U U72C gave a self-cleavage of 0.23.
